In this data set the test system is ATP. As to the kind of experiment: switch fluorescence ratio, 500 uM ATP over buffer (Cy3 cluster intensity, sum of 5 cycles each) (fold (ratio)); higher = stronger signal-on switching upon ATP binding; sequences stand for … in TCGTCGGCAGCGTCAGATGTGTATAAGAGACAGTTTTTTTTTTTTTTTTTTTTTTTTT…TC. The following applies: aptamer strand: ATP DNA aptamer (quencher-CACCTGGGGGAGTATTGCGGAGGAAGG + anchor), 100 nM annealed; ATP concentration: 500 uM; one replicate. An outline of the steps:
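For every switch-domain sequence, the fluorescence ratio is the mean of per-cluster values, each being summed target-cycle Cy3 intensity over summed buffer-cycle Cy3 intensity. Clusters outside 100-1000 RFU were excluded. On a modified Illumina MiSeq flow-cell, the Cy3-labelled switching-strand clusters were annealed to 100 nM quencher-labelled ATP aptamer, imaged in selection buffer and then after 15 min with 500 uM ATP at 22 °C. Five such cycles were run, with NaOH stripping and re-annealing between them.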

Sequences with one replicate were seen in a single cluster, so their values are uncertain.
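Further: ATP exposure 15 min at 22 °C before imaging.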

Consider CGGGGATTTA, for which the switch fluorescence ratio amounted to 0.943. Regarding AAACTGGTGA, the switch fluorescence ratio turned out to be 1.05. The figure for CGAAATTAGG is 1.02. Turning to CAAGCCTAC, the switch fluorescence ratio came to 1.32. As to CGGCGCAGGG, the switch fluorescence ratio amounted to 1.15. Consider AGTATACTTA, for which the switch fluorescence ratio is 1.01.

Take ATTCGTAAAA: the switch fluorescence ratio is 1.05. Take TGCTGAAGTG: the switch fluorescence ratio came to 1.06. For the sequence TAGAAACGGT, the switch fluorescence ratio was 0.99. Take CGATGCGGGA: the switch fluorescence ratio is 1.07. AAAGCGGTAG: the switch fluorescence ratio was determined as 1.01. Consider ATTTGGTCTA, for which the switch fluorescence ratio came to 0.997. On to TCTCTGAACT, for which the switch fluorescence ratio is 1.24.

Turning to TGACTCACTA, the switch fluorescence ratio was 1.19. For TGGTGCTATA the value was 0.999; for CAAAGTCTAC, 1.07; for CGGCAGAGGT, 0.972.

As to TTTAGTGATA, the switch fluorescence ratio was determined as 1.01. The figure for CTTCCCTAAG is 1.07. Turning to CATTCTCACC, the switch fluorescence ratio was 1.06. In the case of TCATATTGGT, the switch fluorescence ratio turned out to be 1.

CCTGTGCTG: the switch fluorescence ratio was found to be 1.13. On to CACAAGAA, for which the switch fluorescence ratio stood at 1.04.

Regarding AATGGAGTAC, the switch fluorescence ratio is 1.07.

Take TGTCATGT: the switch fluorescence ratio is 0.986. Turning to CAGGGTGTGA, the switch fluorescence ratio worked out at 0.98. For TTCTCGAACG the value was 1; for TTTTCCGTCT, 1.07; for ATATTCTATG, 0.985.

For TAGATACGTC, the switch fluorescence ratio stood at 0.974. Regarding GATAATTCAT, the switch fluorescence ratio was determined as 1.07. On to GATCTTTTGT, for which the switch fluorescence ratio was determined as 0.955.

Consider ATGACGACTT, for which the switch fluorescence ratio is 1.02. Regarding GGAGTCTAAC, the switch fluorescence ratio was 0.978. On to TCGTGCAGCC, for which the switch fluorescence ratio stood at 0.95. Regarding CGAGTGGTAC, the switch fluorescence ratio was 1.29. Regarding TTGGTATCCT, the switch fluorescence ratio amounted to 1.02. On to GAACAACATC, for which the switch fluorescence ratio was determined as 1.02. Consider ATATGCACGT, for which the switch fluorescence ratio was determined as 1.04.

In the case of TTAATTAGAC, the switch fluorescence ratio amounted to 1.01. Regarding CTGAAACGG, the switch fluorescence ratio stood at 0.994. As for ATGGATACAT, the switch fluorescence ratio was found to be 1.02. For ATCGAGAA the value was 1.03.

Take AGAGTCGACT: the switch fluorescence ratio was 0.945. Turning to TAATGTGCCT, the switch fluorescence ratio was 1.05.

Take ATAGTTGCT: the switch fluorescence ratio is 0.971. The figure for CACCGGCATA is 2.11.

On to ACTAGGGGCC, for which the switch fluorescence ratio came to 1.05. For GCAATTGGAC, the switch fluorescence ratio was 1.77. For TCCAATTACT, the switch fluorescence ratio is 1.12. In the case of GAAATTACAC, the switch fluorescence ratio worked out at 1.09. For CTTGGGCCCA the value was 0.993; for TTGGGTTCAT, 1; for TCACCGATGG, 0.98. For GGCTTCGCGG the value was 1.02. For the sequence TGTGACAAGT, the switch fluorescence ratio amounted to 0.954. As for AAGCATTCAG, the switch fluorescence ratio came out at 1.01. For the sequence TATACCGTTC, the switch fluorescence ratio stood at 1.05. Take ACAAAAGGCG: the switch fluorescence ratio amounted to 0.979. For CTAATCGGGT the value was 1. Turning to GGGGACAGCC, the switch fluorescence ratio stood at 0.954.

For the sequence CATCGGTCGG, the switch fluorescence ratio came out at 1. Turning to TTTGTGGAGA, the switch fluorescence ratio stood at 1.05. As to TTTCCGCTTT, the switch fluorescence ratio stood at 2.23.

With TCTTGGTATT, the switch fluorescence ratio was found to be 1.02. Take GGGCTGTCGC: the switch fluorescence ratio is 1.01. As for ATTATAGTGC, the switch fluorescence ratio is 1.

Take AGTCCGTGTT: the switch fluorescence ratio came out at 1.03. TGCATTGAAT: the switch fluorescence ratio is 0.99.

Take GGTCCCAGTT: the switch fluorescence ratio worked out at 1.01. Take TAATTGTATT: the switch fluorescence ratio is 0.993.

On to ATTCCCGCGG, for which the switch fluorescence ratio came out at 1.03. For CAGAAGGGTA, the switch fluorescence ratio was found to be 0.978. The figure for GAAACTAGGG is 1.02. Regarding TAAAAGCGAC, the switch fluorescence ratio came out at 1.08. The figure for TGTATAATAG is 1.

Take GTTAATGTC: the switch fluorescence ratio came to 0.949.

Consider ATAACGGTCT, for which the switch fluorescence ratio came to 0.991. With CGGGATAGTT, the switch fluorescence ratio was 0.974. Turning to TTCCAGCTGA, the switch fluorescence ratio is 1.04. The figure for GAGCATCGTG is 0.971; for TTTTATAAT it is 0.952. On to TTTTATGCCA, for which the switch fluorescence ratio is 1.02. Take ACTCCTTACT: the switch fluorescence ratio turned out to be 1.47. On to GTGGGTCCTC, for which the switch fluorescence ratio turned out to be 1.05. For AGGTGAGTAC, the switch fluorescence ratio turned out to be 0.99. On to AAGGGTGGCT, for which the switch fluorescence ratio was determined as 1.03. For TGCCGAATGC the value was 1.17; for CGGTATGAG, 0.995.

TTTACTAAAT: the switch fluorescence ratio worked out at 1. As to CGCCAGCCGG, the switch fluorescence ratio was found to be 1.03. With AAATATAGAA, the switch fluorescence ratio was determined as 0.961. Regarding GCTGAAACGT, the switch fluorescence ratio came to 1.08. On to ACGGATCTTG, for which the switch fluorescence ratio was 0.999. With GTGAATTCGC, the switch fluorescence ratio stood at 0.984. Consider AGACAGAAGG, for which the switch fluorescence ratio was found to be 0.985. As for GCAACTACAA, the switch fluorescence ratio worked out at 1.09. For TCAGGCACGG, the switch fluorescence ratio turned out to be 1.01. For GCGCCACCCC, the switch fluorescence ratio was 1.01. As to ACGATGTTGT, the switch fluorescence ratio came to 1.02. As to CCGAAAATAT, the switch fluorescence ratio was 1.25. On to ACTGTGGCGC, for which the switch fluorescence ratio turned out to be 1.02. As to ATCTTTACAA, the switch fluorescence ratio amounted to 1. For CGCCGTATGA, the switch fluorescence ratio is 0.996. As for CTTGGTACCT, the switch fluorescence ratio stood at 1.01.

For the sequence GTGTGCCGG, the switch fluorescence ratio came to 0.997.

On to GATGCCAGAA, for which the switch fluorescence ratio was 1.01.

With TCGCGTTTCG, the switch fluorescence ratio amounted to 0.973. For TCGCCAACTG the value was 1.14; for GCCCTCAGCC, 1.08.

Take GTCGGAGAAG: the switch fluorescence ratio was 0.983. With AGGGGGCCAT, the switch fluorescence ratio was determined as 0.987. The figure for TATAGTAGAC is 1.01. TGATCAGCCG: the switch fluorescence ratio was found to be 1.01.

For ACTTGAAGCG, the switch fluorescence ratio came out at 1.01. In the case of CCGGTCCCCA, the switch fluorescence ratio stood at 1.24. For GTGATCTGG, the switch fluorescence ratio came out at 0.987. TATGGATGC: the switch fluorescence ratio came out at 0.998. As to CCGAATGGTC, the switch fluorescence ratio stood at 1.23.

On to AACACAGCGA, for which the switch fluorescence ratio stood at 1.12.

Values taken from the supplement of paper PMC10126150.
